In all, about 110,000 compounds went through this assay and about 40 (0.04%) were called active. Inconclusive means that the source gave no clear call. Such entries were picked first, then a sample of the others. Calls come from the whole dose curve; as a rule, active = well fitted curve in the direction sought with a large enough effect in the signal ratio (not every such curve was filed as active); inconclusive = small, poorly fitted or top-dose-only effect, or a change in a side signal; inactive = flat fitted curve, though single readings scatter; the % refers to the signal ratio. Potencies of inconclusive entries are doubtful fits and often do not repeat.
Experiment: IkB Signaling;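 for IkBa stabilization activation: 0% = basal untreated cells and 100% = reference inhibitor full response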
Conditions: ABC-DLBCL IkBa-CBG/CBR dual luciferase ratio (green luciferase fused to IkBa over red control in OCI-Ly3 lymphoma cells), 4 h; IkBa stabilization activation: at 57.1 µM (top of the series), scaled: untreated 0%, proteasome inhibitor 100% unless noted
Method in brief: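 Curves were fitted separately to fusion (green), unfused (red) and ratio luminescence, then classed by r2, magnitude and activity. Cells: OCI-Ly3, 4 h compound plus doxycycline at 37C; 10 uM MG-132 defined full response.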
Potency is the fitted concentration of half-maximal effect.

| Compound | IkBa stabilization activation | Potency |
| --- | --- | --- |
| O=c1cc(-c2ccccc2)oc2cc(O)cc(O)c12 | inconclusive: -6.5% [signal inhibitor] [at 25.6 µM, scaled: untreated 0%, proteasome inhibitor 100%] |  |
| CCn1c2ccccc2c2cc(C3C(C#N)=C(N)Oc4n[nH]c(COC)c43)ccc21 (stereo not given) |  | inconclusive: 31.6 µM [signal inhibitor, partial curve] |
| Nc1ccc(N=Nc2ccc(-c3ccc(O)cc3)cc2)c2ccc(S(=O)(=O)O)cc12 | inactive: -3.32% [at 11.4 µM, scaled: untreated 0%, proteasome inhibitor 100%] |  |
| Cc1ccc2c(c1)[nH]c1c(N3CCN(Cc4ccccc4)CC3)ncnc12 | inconclusive: -6.24% [signal inhibitor] |  |
| CCOC(=O)c1noc2ncnc(N3CCN(c4ccccc4OC)CC3)c12 | inactive |  |
| CN1CCc2c(sc(/N=C/c3cccs3)c2C(N)=O)C1 | inactive |  |
| COCCn1c(-c2ccccc2)nc2oc3ccccc3c(=O)c2c1=O | inactive |  |
| c1coc(CNc2nc(N3CCCCC3)nc3ccccc23)c1 | inconclusive: 3.9% [signal inhibitor] |  |
| CC(C)(C)NS(=O)(=O)c1ccc2nc(NC(=O)c3cccnc3)sc2c1 | inconclusive: 1.31% [signal inhibitor] |  |
| COC(=O)CNC(=O)Nc1cc(C(=O)NCc2ccc(C)cc2)ccc1N1CCCC1 | inactive |  |
| COc1ccc(C)cc1NC(=O)c1oc2ccc(S(=O)(=O)N(C)C3CCCCC3)cc2c1C | inconclusive: 0.371% [signal inhibitor] |  |
| O=C(Nc1ccc(F)cc1F)c1ccc(CN2CC(=O)N3CCCCC3C2=O)cc1 (stereo not given) | inconclusive: -0.0403% [signal inhibitor] |  |
| O=C(CSc1nc2ccccc2c2nc(-c3ccccc3)nn12)Nc1ccc(Br)cc1 | inactive |  |
| CC(C)(C)c1cc(C(C)(C)C)c2oc(=O)c(-c3nc4ccccc4[nH]3)cc2c1 | inconclusive: 4.44% [signal inhibitor] |  |
| Cc1noc(-c2ccccc2OCC(=O)Nc2cccc([N+](=O)[O-])c2)n1 | inconclusive: 0.659% [signal inhibitor] |  |
| COC(=O)Nc1ccc(S(=O)(=O)N2CCCC(C(=O)Nc3cccc4c3OCCO4)C2)cc1 (stereo not given) | inconclusive: 1.43% [signal inhibitor] |  |
| CC(=O)c1ccc(N2CCN(C(=O)NCc3noc4ccc(C)cc34)CC2)cc1 | inactive |  |
| COC(=O)CCc1sc(Nc2ccc(OC)cc2)nc1-c1ccc(OC)cc1 | inactive |  |
| CS(=O)(=O)N1CCc2cc(S(=O)(=O)N3CCN(Cc4ccc5c(c4)OCO5)CC3)ccc21 |  | inconclusive: 0.501 µM [signal inhibitor, full curve] |
| Cc1ccc(N(CC(=O)NCc2ccco2)S(=O)(=O)c2ccccc2)cc1 | inactive |  |
| COc1ccc(N2CCN(C(=O)CCS(=O)(=O)c3cc4c(cc3Cl)NC(=O)CO4)CC2)cc1 | inactive |  |
| COc1ccc(-c2nnn3c2nc(N2CCCC(C)C2)c2ccccc23)cc1 (stereo not given) |  | inconclusive: 3.16 µM [signal inhibitor] |
| CC(=O)c1cc(C(=O)Nc2cccc(C)c2)c2ccccn12 | inactive |  |
| O=C(CSc1nnc(Cc2cccs2)n1Cc1ccco1)Nc1cccc(Cl)c1 | inconclusive: 1.79% [signal inhibitor] |  |

| Compound | IkBa stabilization activation | Potency |
| --- | --- | --- |
| O=C(CN1CCC(c2nc3ccccc3s2)CC1)NCc1cccs1 | inconclusive: 10.4% [signal inhibitor] |  |
| Cc1ccc(NC(=O)c2cc(S(=O)(=O)N3CCOCC3)c(Cl)cc2Cl)cc1 | inconclusive: -5.87% [signal inhibitor] |  |
| Nc1c2c(nc3ccccc13)CCCC2 | inactive |  |
| Cc1ccc(/C=c2\sc3nc(-c4cccnc4)nn3c2=O)cc1 | inactive |  |
| CCCCC(CC)COC(=O)C(C#N)=C(c1ccccc1)c1ccccc1 (stereo not given) | inactive |  |
| CCc1ccc(CNC(=O)c2ccc(CSc3nc4ccncc4n3Cc3ccccc3)cc2)cc1 | inconclusive: 2.16% [signal inhibitor] |  |
| CC(=O)c1ccc(N2CCN(C(=O)C3CCN(S(=O)(=O)c4cccc5nonc45)CC3)CC2)cc1 | inconclusive: 2.73% [signal inhibitor] |  |
| O=c1c2c3c(sc2nnn1Cc1ccc(Br)cc1)CCCC3 | inconclusive: 8.39% [signal inhibitor] |  |
| O=S(=O)(NCCc1csc(-c2ccc(F)cc2)n1)c1ccc(Cl)cc1 | inconclusive: 4.16% [signal inhibitor] |  |
| CCOC(=O)c1ccc(NC(=O)CCc2c(C)nc3c(c(C)nn3C)c2C)cc1 | inconclusive: 11.6% [signal inhibitor] |  |
| Cc1nc(N)sc1-c1csc(Nc2ccc(Cl)cn2)n1 | inactive |  |
| COc1ccc(-c2csc(NCc3ccco3)n2)cc1C | inactive |  |
| Cc1ccc(CN2CCSc3ccc(C(=O)N4CCN(c5cccc(C)c5C)CC4)cc32)cc1 | inconclusive: 1.04% [signal inhibitor] |  |
| O=C(CSc1nccn1Cc1ccc(Cl)cc1)NC1CCCC1 | inconclusive: -1.91% [signal inhibitor] |  |
| CCOC(=O)c1ccc(NC(=O)CC2C(=O)N(c3ccccc3)C(=O)N2Cc2cccs2)cc1 (stereo not given) | inconclusive: 0.232% [signal inhibitor] |  |
| Cc1ccc(S(=O)(=O)c2[nH]c(-c3ccccc3)nc2SCC(=O)O)cc1 | inconclusive: 1.44% [signal inhibitor] |  |
| COc1ccc(N2CCN(CC(O)COc3ccc(C(C)(C)C)cc3)CC2)cc1 (stereo not given) | inconclusive: 1.26% [signal inhibitor] |  |
| O=C1OC(Nc2ccc3c(c2)OCO3)c2ccccc21 (stereo not given) |  | inconclusive: 31.6 µM [rising, partial curve] |
| CCCNc1nc2c(c(=O)n(C)c(=O)n2C)n1Cc1cccc(C)c1 | inconclusive: 3.94% [signal inhibitor] |  |
| CCOc1ccc(CNC(=O)c2ccc3nc(Cc4ccc(OC)cc4)oc3c2)cc1OC | inconclusive: 2.05% [signal inhibitor] |  |
| CCCCCn1c(=NC(=O)c2ccco2)c(C(=O)OCC)cc2c(=O)n3ccccc3nc21 | inactive |  |
| CN(C(=O)CSc1nnc2[nH]c(=O)cc(-c3ccccc3)n12)c1ccccc1 | inconclusive: 3.28% [signal activator] |  |
| COCCNC(=O)c1ccc2c(c1)N(Cc1cccc(Cl)c1)C(=O)c1ccccc1S2=O (stereo not given) | inconclusive: 0.833% [signal inhibitor] |  |
| Cc1cc(C)n2nc(SCc3cc(=O)n4c(C)cccc4n3)nc2n1 | inactive |  |

| Compound | IkBa stabilization activation | Potency |
| --- | --- | --- |
| Fc1ccc(CNc2ncnc3c2c(-c2ccccc2)cn3-c2ccccc2)cc1 | inconclusive: -0.846% [signal activator] |  |
| CCN(CC)c1ccc(NC(=O)c2cccc(OC)c2)c(C)c1 | inactive |  |
| Cc1ccc(C)c(N2CCN(C(=O)CN3C(=O)CSc4c3c(C)nn4-c3ccccc3)CC2)c1 | inconclusive: 5.94% [signal inhibitor] |  |
| Cc1c2cnn(-c3ccccc3)c(=O)c2c(C)n1CCCC(=O)Nc1ccc(F)cc1F |  | inconclusive: 0.794 µM [signal inhibitor] |
| CC(C)(C)C1CCc2onc(C(=O)Nc3sc4c(c3C(N)=O)CCCC4)c2C1 (stereo not given) | inactive |  |
| COc1ccccc1NC(=O)N(Cc1ccco1)Cc1cc2c(C)ccc(C)c2[nH]c1=O | inconclusive: 11.2% [signal inhibitor] |  |
| O=C(c1ccc2c(Cl)c3c(nc2c1)CCCC3)N1CCN(c2ccccc2)CC1 | inconclusive: 5.48% [signal inhibitor] |  |
| CCCc1nnc(NC(=O)c2nc(S(=O)(=O)Cc3ccc(C)cc3)ncc2Cl)s1 | inactive |  |
| CCOc1ccccc1NS(=O)(=O)c1c(-c2ccc(C)cc2)csc1C(=O)OC | inconclusive: 1.24% [signal inhibitor] |  |
| COc1ccc(-c2nc(SCC(=O)NCCCc3ccccc3)n[nH]2)cc1 | inconclusive: 0.857% [signal inhibitor] |  |
| CCN(CC)CCCNC(=O)c1oc2c(c1C)-c1nn(Cc3ccc(Cl)cc3)cc1CC2 | inconclusive: -0.237% [signal inhibitor] |  |
| Cc1cccc(-c2noc(C3CC(=O)N(c4ccc5c(c4)OCCO5)C3)n2)c1 (stereo not given) | inconclusive: 2.8% [signal inhibitor] |  |
| CC(C)(C)OC(=O)[C@H]([C@@H]1N[C@@H](C(=O)O)C(C)(C)S1)N1C(=O)c2ccccc2C1=O | inactive: 0.935% [at 11.4 µM, scaled: untreated 0%, proteasome inhibitor 100%] |  |
| COc1ccc(NC(=O)CSc2ncn(-c3ccccc3)n2)cc1Cl | inconclusive: 1.48% [signal inhibitor] |  |
| COc1ccc(N(C)C(=O)NCc2noc3ccc(C)cc23)c(OC)c1 | inconclusive: 1.57% [signal inhibitor] |  |
| CCCNC(=O)Nc1cc(C(=O)NCc2cccc(OCC)c2)ccc1N1CCCC1 | inconclusive: 2.61% [signal inhibitor] |  |
| COc1ccccc1NC(=O)CSCc1cc(=O)c2c(C)cc(C)cc2[nH]1 | inconclusive: 4.42% [signal inhibitor] |  |
| Cc1cccc(NC(=O)C2CCCN(S(=O)(=O)c3c(C)noc3/C=C/N(C)C)C2)c1C (stereo not given) | inconclusive: 1.53% [signal inhibitor] |  |
| CCCn1c(N)c(C(=O)CSc2nnc(Cc3ccccc3)o2)c(=O)n(C)c1=O | inconclusive: 5.32% [signal inhibitor] |  |
| COc1cc2cc(C(=O)O)n(C)c2c(OC)c1OC | inactive |  |
| Cc1cc2nc3c(=O)n(C)c(=O)n(C)c3nc2cc1N=CN(C)C | inactive |  |
| CCC(=O)N1CCc2cc(Br)cc(S(=O)(=O)CCC(=O)Nc3ccccc3C)c21 | inconclusive: -1.15% [signal inhibitor] |  |

From PubChem BioAssay AID445 (National Center for Advancing Translational Sciences (NCATS), 2006)
